# In patent US20250295648A1 (priority 2024, published 2025):
# Test system: patients with moderate to severe L-DOPA-induced dyskinesia (LID) in Parkinson's disease
# Assay: Phase 2a study: ECG, vital signs, safety laboratory, physical examination, C-SSRS
# Type: in vivo
smiles,measurement,setting,value
"Cc1ccc(CNCC2(F)CCN(C(=O)c3ccc(F)c(Cl)c3)CC2)nc1 [NLX-112, (3-chloro-4-fluoro-phenyl)-[4-fluoro-4-{[(5-methyl-pyridin-2-ylmethyl)-amino]-methyl}piperidin-1-yl]methanone]",abnormal vital signs assessed as clinically significant: patients n,N=18,2
same,"ECG: HR, PR, QRS, QT, QTc measures",any post-baseline visit,no changes
same,suicidal ideation/behavior (C-SSRS),in vivo,no indication of increased suicidal ideation/behavior
same,"vital signs: HR, BP, body temperature",in vivo,no changes
same,"clinical chemistry, hematology, urinalysis, coagulation parameters",laboratory assessments,no clinically significant changes
same,abnormal vital signs assessed as not clinically significant: patients %,"one or more occasions, N=18",67%
same,abnormal vital signs assessed as not clinically significant: patients n,"one or more occasions, N=18",12
same,occurrences of orthostatic hypotension on one or more occasions: patients n,out of 18 patients,13
